Data on 56 compounds can be found in article PMC4336329 (PLoS ONE, 2015).

Structures are written as SMILES. The whole screen tested about 310,000 compounds, of which about 2,200 (0.71%) showed an effect of 50% or more. Effects have a minus sign here. The list shows a part of the results.

Sequence of human ether-à-go-go-related gene (hERG) potassium channel (Q12809 whole entry, looked up): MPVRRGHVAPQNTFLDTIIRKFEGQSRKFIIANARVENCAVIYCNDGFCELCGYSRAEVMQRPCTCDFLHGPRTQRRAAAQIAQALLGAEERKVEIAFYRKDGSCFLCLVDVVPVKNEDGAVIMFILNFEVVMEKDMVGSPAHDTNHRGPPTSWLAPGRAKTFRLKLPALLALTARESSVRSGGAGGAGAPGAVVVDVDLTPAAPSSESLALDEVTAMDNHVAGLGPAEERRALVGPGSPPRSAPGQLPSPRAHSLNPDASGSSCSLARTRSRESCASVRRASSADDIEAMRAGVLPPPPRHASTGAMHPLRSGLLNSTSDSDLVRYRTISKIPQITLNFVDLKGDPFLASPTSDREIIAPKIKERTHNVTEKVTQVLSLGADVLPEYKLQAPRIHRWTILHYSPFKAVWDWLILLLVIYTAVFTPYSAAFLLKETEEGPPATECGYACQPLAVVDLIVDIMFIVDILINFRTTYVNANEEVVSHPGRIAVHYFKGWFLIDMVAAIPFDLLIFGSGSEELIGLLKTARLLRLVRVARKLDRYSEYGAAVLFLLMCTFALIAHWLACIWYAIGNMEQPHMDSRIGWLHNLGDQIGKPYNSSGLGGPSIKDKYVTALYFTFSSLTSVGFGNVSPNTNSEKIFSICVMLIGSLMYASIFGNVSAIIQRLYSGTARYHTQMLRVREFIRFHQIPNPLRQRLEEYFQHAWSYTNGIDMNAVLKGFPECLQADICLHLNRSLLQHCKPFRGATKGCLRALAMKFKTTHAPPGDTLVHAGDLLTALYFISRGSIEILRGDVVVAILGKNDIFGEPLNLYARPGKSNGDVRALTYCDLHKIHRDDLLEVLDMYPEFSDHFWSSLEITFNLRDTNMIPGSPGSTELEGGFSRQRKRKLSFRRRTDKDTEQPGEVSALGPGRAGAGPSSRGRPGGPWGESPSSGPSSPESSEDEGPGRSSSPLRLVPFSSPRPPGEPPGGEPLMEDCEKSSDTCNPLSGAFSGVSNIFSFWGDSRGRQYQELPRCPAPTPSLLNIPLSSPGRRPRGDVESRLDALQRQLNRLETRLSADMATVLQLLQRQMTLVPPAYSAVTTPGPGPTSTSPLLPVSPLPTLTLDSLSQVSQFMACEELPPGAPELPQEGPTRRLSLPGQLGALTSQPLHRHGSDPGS

This test concerns the target human ether-à-go-go-related gene (hERG) potassium channel (human, UniProt Q12809). In words: primary screen, population patch clamp on CHO cells stably expressing hERG.
`CC1CN(C(=O)CSc2nc(-c3ccc(F)cc3)cs2)CC(C)O1` (centres unmarked): the “hERG current change (%, negative = inhibition) at 1uM” value is listed as 5.61%.
With `CCC(C)(C)NC(=O)CN(C(=O)c1snc(C(N)=O)c1N)c1ccc(OC)c(OC)c1` the figure was 8.41%.
As for `CC(C)CCn1c(=O)[nH]c2ccccc21`, the figure is 13.8%.
Consider `COc1ccc(NC(=O)/C(C#N)=C/c2ccc(-c3ccc(Cl)c(C(=O)O)c3)o2)cc1`, for which the “hERG current change (%, negative = inhibition) at 1uM” value was 18.3%.
As for `COc1ccc(C(=O)NNC(=O)CCC(=O)Nc2ccc(C)cc2C)cc1`, the figure is 14.8%; as for `O=C(Nc1ccccc1F)c1c[nH]c(=O)[nH]c1=O`, 10.2%; as for `CC(C)c1nc(Cl)c(C#N)c2c1CSC(C)(C)C2`, 12.6%.
For `CC(O)[C@H]1CNCCN1CCc1cc(C(F)(F)F)cc(C(F)(F)F)c1` (some centres unmarked), the “hERG current change (%, negative = inhibition) at 1uM” value is 11.6%.
With `CCC12CN3CCN(CC(C3)/C1=N\NC(=O)c1ccc(C(C)(C)C)cc1)C2` the figure was 2.87%.
With `O=C1N=C(N2CCOCC2)S/C1=C/c1cccs1` the figure was -0.965%; with `CCN(CC)CCCNC(=O)c1nn(-c2ccc(OC)cc2OC)c(=O)c2ccccc12`, 8.97%.
As for `O=C(CCc1nnc(-c2ccc3c(c2)OCO3)o1)N(Cc1ccncc1)CC1CCCO1` (centres unmarked), the figure is 11.7%.
Regarding `COc1ccc(C(C(=O)NC2CCCCC2)N(C(=O)c2ccccn2)c2cccnc2)cc1` (centres unmarked), the “hERG current change (%, negative = inhibition) at 1uM” value is listed as 14.1%.
As for `CCCc1cc(=O)[nH]c(SCC(=O)Nc2c(C)cccc2C)n1`, the “hERG current change (%, negative = inhibition) at 1uM” value was found to be 8.21%.
With `COc1ccc(N2CCN(Cc3nc4scc(-c5ccccc5)c4c(=O)[nH]3)CC2)cc1` the figure was 17.6%; with `COP(=O)(OC)c1nc(-c2cccc3ccccc23)oc1N1CCOCC1`, 13%; with `Cc1ccccc1C1NC(=O)c2ccccc2O1` (centres unmarked), 15.1%.
As for `COc1ccc(-c2cc(-c3n[nH]c(=S)n3-c3ccccc3Cl)[nH]n2)cc1`, the figure is 19%; as for `COc1ccccc1C(=O)COC(=O)CNS(=O)(=O)c1ccc(NC(C)=O)cc1`, 6.56%; as for `O=C(OCn1ncc(Cl)c(Cl)c1=O)c1ccc(F)cc1`, -4.02%.
With `COc1ccc(C=NCCC2(O)CC(C)N(C)CC2C)cc1` (centres unmarked) the figure was 13.9%; with `Cc1cccc(OCC(=O)NNC(=O)C2CCCCC2C(=O)O)c1` (centres unmarked), 11.6%.
As for `Cn1c(=O)c2c(nc(NC3CCCCC3)n2CC(O)COc2ccccc2)n(C)c1=O` (centres unmarked), the “hERG current change (%, negative = inhibition) at 1uM” value amounted to 8.42%.
As for `COCCNC(=O)CN(Cc1ccc(Cl)cc1)S(C)(=O)=O`, the figure is -2.56%; as for `CCOC(=O)c1cnn2c(C)cc(-c3ccccc3)nc12`, 2.21%.
For the compound `COc1ccc2c(Cl)c(C(=O)NN3CCN(C)CC3)sc2c1`, the “hERG current change (%, negative = inhibition) at 1uM” value was determined as 3.55%.
With `COc1ccc(OC)c(/C(C)=N\NC(=O)c2cc3cc(Cl)ccc3n2C)c1` the figure was 17.5%; with `NC(=O)CSCc1c(Cl)cccc1Cl`, 8.89%; with `S=c1[nH]nc(CCc2ccccc2)n1-c1ccc(Cl)cc1`, 11.7%.
With `COc1cccc(C2/C(=C(\O)c3ccc4c(c3)OCCO4)C(=O)C(=O)N2CCN(C)C)c1` (centres unmarked) the figure was 9.07%.
As to `CN(C)CC(C)(C)CNS(=O)(=O)c1ccc(Cl)c(Cl)c1`, the “hERG current change (%, negative = inhibition) at 1uM” value is recorded as 11.7%.
As for `CC1CCN(CCC(=O)Nc2ccc3c(c2)CCC3)CC1`, the figure is -1.28%; as for `COC1=CC=C2[C@H]3Cc4ccc(OC)c5c4[C@@]2(CCN3C)[C@H]1O5.Cl`, 0.915%; as for `CCN(CC)S(=O)(=O)c1cccc(C(=O)N[C@H](C(=O)NCc2ccc(Cl)cc2)C(C)C)c1`, 10.4%.
With `CSc1ncc(CN2CCc3c([nH]c4ccccc34)C2c2cccc(C)n2)cn1` (centres unmarked) the figure was 5.15%; with `CC1CN(S(=O)(=O)c2csc(C(=O)Nc3ccccc3)c2)CC(C)O1` (centres unmarked), 14.6%; with `Cc1c(CCC(=O)NCCCN2CCCC2=O)c(=O)oc2cc(O)ccc12`, 10.3%.
Take `COc1cc(SC)ccc1C(=O)N1CCN(c2ccccc2OC)CC1`: the “hERG current change (%, negative = inhibition) at 1uM” value came to 8.56%.
For `Cc1ccc(-n2nc3c(=O)n(C(C)C(=O)NC4CC4)nc(C)c3c2C)cc1` (centres unmarked), the “hERG current change (%, negative = inhibition) at 1uM” value came to 12.6%.
With `CC(c1ccncn1)N(C)C(=O)c1ccc2oc(Cc3ccccc3)nc2c1` (centres unmarked) the figure was 9.8%; with `COc1ccc2c(c1OC)CN(C)CCc1cc3c(cc1C(=O)C2)OCO3`, -84%.
As for `CN1CCN(C(=O)COc2ccc(S(=O)(=O)NC3CCCCC3)cc2Cl)CC1`, the figure is 15.3%.
As for `COC(=O)c1cn(NC(=O)Cc2ccccc2Br)c(=O)c2ccccc12`, the figure is 5.95%; as for `COc1cc(CNc2nc3ccccc3[nH]2)cc(OC)c1OC.Cl`, 13.1%; as for `CCCC(=O)NCc1cc(-c2nn(C)c(=O)c3ccccc23)ccc1OC`, -1.69%.
For `O=C(c1ccc(S(=O)(=O)N2CCCCC2)cc1)N1CCN(c2ccccc2F)CC1`, the “hERG current change (%, negative = inhibition) at 1uM” value came out at 13.8%.
For the compound `COc1cc(C(=O)N2CCN(c3ncnc4sc(C)c(C)c34)CC2)cc(OC)c1OC`, the “hERG current change (%, negative = inhibition) at 1uM” value is -18.2%.
As for `COc1ccc(C(=O)Nc2cccc3c2C(=O)NC3=O)cc1S(=O)(=O)N1CCOCC1`, the figure is -3.41%; as for `Cc1onc(-c2ccccc2)c1-c1nnc(-c2ccccc2C(F)(F)F)o1`, 9.8%; as for `Cc1c(NC(=O)c2ccc(N(Cc3ccccc3)S(C)(=O)=O)cc2)c(=O)n(-c2ccccc2)n1C`, 15.1%.
As for `CCn1cc(Cl)c(C(=O)NNC(=O)CCn2ccc([N+](=O)[O-])n2)n1`, the figure is 14.8%; as for `COC(=O)/C(=C/c1ccco1)NC(=O)c1ccccc1`, 4.04%.
As for `Cn1c(SCC(=O)NCc2ccc(F)cc2)nc2c([nH]c3ccccc32)c1=O`, the figure is 8.91%; as for `OCCN1CCN(c2cc(C(F)(F)F)nc3ccccc23)CC1`, 9.3%.
Consider `CCNC(=S)N(Cc1ccc2c(c1)OCO2)C1CC(=O)N(c2ccc(OC)cc2)C1=O` (centres unmarked), for which the “hERG current change (%, negative = inhibition) at 1uM” value amounted to 5.31%.
With `Cc1ccc(-n2nc3ccc(N)cc3n2)c(C)c1` the figure was 20.9%.
